Test results from PubChem BioAssay AID504832 (National Center for Advancing Translational Sciences (NCATS), 2011).
In all, about 310,000 compounds went through this assay and about 18,000 (5.8%) were called active. This list was built around the results that the source calls inconclusive (neither active nor inactive); the mix of calls is not that of the screen. Calls follow the shape of the dose curve; as a rule, active = well fitted inhibition curve with a large enough effect; inconclusive = small, poorly fitted or top-dose-only effect, or another doubt; inactive = no such curve, though single readings can be large or run the other way. Potencies of inconclusive entries are left out as doubtful fits.

assay: Primary qHTS for delayed death inhibitors of the malarial parasite plastid, 48 hour incubation; conditions: P. falciparum luciferase growth in erythrocytes; series mostly up to 28.7 µM; activity change, negative = inhibition: at the top concentration
How it was run: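 Luminescence readout; reporter = integrated firefly luciferase in P. falciparum. RBC culture at 2% hematocrit, 0.1% parasitemia final, 37 C/5% CO2; decreased signal taken as growth inhibition.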
% is scaled to controls: 0 for no effect and ±100 for the full control effect; potency is read from the fitted curve at half-maximal effect; tags tell the direction and shape of the fitted curve.

Q: With `COc1ccc(C(=O)/C=C/c2cccs2)c(OC(=O)c2cccc([N+](=O)[O-])c2)c1` as the compound, how does the “activity change, negative = inhibition” value read?
A: inactive: 51.3%

Q: With `COc1cccc(/C=C/C(=O)OCC(=O)Nc2ccc(S(=O)(=O)N3CCCC3)cc2)c1` as the compound, how does the “activity change, negative = inhibition” value read?
A: inactive: 21.3%

Q: With `CCOc1ccccc1C(=O)Nc1cccc2cccnc12` as the compound, how does the Potency read?
A: inconclusive [inhibitor, partial curve, poor fit]

Q: For `COc1ccc(NC(=O)c2c(C)nn(-c3ccccc3)c2Cl)cc1`, which Potency is on record?
A: inconclusive [inhibitor, full curve, poor fit]

Q: Which Potency does the source give for `Cc1nc2ccc(NC(=O)[C@@H](NC(=O)c3c(F)cccc3F)C(C)C)cc2s1` here?
A: active: 2.08 µM

Q: Which Potency does the source give for `O=C(Nc1ccc(SC(F)F)cc1)C1CC(=O)N(Cc2ccccc2)C1` (stereo not given) here?
A: inconclusive [inhibitor, single point]

Q: For `NC(=O)N=Nc1c(O)[nH]c2ccc([N+](=O)[O-])cc12`, which “activity change, negative = inhibition” value is on record?
A: inactive: 7.87%

Q: Which “activity change, negative = inhibition” value does the source give for `Nc1ccc2sc(N)nc2c1` here?
A: inactive: 63.8%

Q: With `CCC1=Nc2cc(C(=O)NCCCN3CCN(C)CC3)ccc2Sc2ccccc21` as the compound, how does the Potency read?
A: inconclusive [inhibitor, single point]

Q: For `O=c1c(C=NCCCn2ccnc2)c(-c2ccccc2)[nH]n1-c1nc2ccccc2s1`, which Potency is on record?
A: active: 10.4 µM

Q: For `CC1CCN(S(=O)(=O)c2ccc(C(=O)Nc3ccccn3)cc2)CC1`, which Potency is on record?
A: inconclusive [inhibitor, single point]

Q: With `O=C(Nc1cccc(O)c1)c1cc2nc(-c3ccccc3)cc(-c3ccccc3)n2n1` as the compound, how does the “activity change, negative = inhibition” value read?
A: inactive: -25.3%

Q: Which Potency does the source give for `c1ccc(CCN2CCN(c3ncnc4c3cnn4-c3ccccc3)CC2)cc1` here?
A: inconclusive [inhibitor, single point]

Q: For `COc1ccc(OC)c(NC(=O)C(=O)NNC(=O)C23CC4CC(CC(C4)C2)C3)c1`, which Potency is on record?
A: inconclusive [inhibitor, single point]

Q: With `CC(=O)Nc1ccc(N=Cc2c(O)c(C(=O)Nc3ccccc3)cc3ccccc23)cc1` as the compound, how does the Potency read?
A: inconclusive [inhibitor, single point]

Q: For `CCc1ccc(NP(=O)(Oc2ccccc2F)Oc2ccccc2F)cc1`, which Potency is on record?
A: inconclusive [inhibitor, single point]

Q: Which Potency does the source give for `Oc1ccc(Cl)cc1CNCc1cccc2ccccc12` here?
A: active: 0.415 µM

Q: For `O=S(=O)(C=C(c1ccccc1)c1ccccc1)c1ccccc1`, which Potency is on record?
A: inconclusive [inhibitor, single point]

Q: Which Potency does the source give for `CCCN(CCC)C(=O)CC(c1ccccc1)c1cc(C)ccc1O` (stereo not given) here?
A: inconclusive [inhibitor, single point]

Q: For `Cc1cc(Oc2ccccc2)nc(NCc2ccccc2)n1`, which “activity change, negative = inhibition” value is on record?
A: inactive: 0.214%
